# Experimental data: the supplement of paper PMC8821664
# Counter-ions that a name gives are not always drawn. Some of the results follow. Many values rest on one well or one pass, so single values are uncertain.
# Test system: Beas-2B AQP5-HiBiT reporter cells
# Assay: AQP5-HiBiT luminescence relative to vehicle (ratio to vehicle); higher = higher AQP5-HiBiT protein abundance
# Settings: 10 µM; 18 h
# 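Also: monoclonal Beas-2B line stably carrying CMV promoter-driven AQP5-HiBiT, 5,000 cells per well in 384-well plates, lytic HiBiT plus LgBiT NanoLuc luminescence, FDA-approved drug library screen.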
row,Compound,AQP5-HiBiT luminescence
1,CN1CCN(C2=Nc3ccccc3Oc3ccc(Cl)cc32)CC1 [Loxapine succinate salt],1.5
2,Cc1cc(-c2ccc(/N=N/c3ccc4c(S(=O)(=O)O)cc(S(=O)(=O)O)c(N)c4c3O)c(C)c2)ccc1/N=N/c1ccc2c(S(=O)(=O)O)cc(S(=O)(=O)O)c(N)c2c1O [Evans blue],1.03
3,OCCOc1ccc(/C(=C(/CCCl)c2ccccc2)c2ccccc2)cc1 [Ospemifene],0.885
4,Cc1nnc(NS(=O)(=O)c2ccc(N)cc2)s1 [Sulfamethizole],0.863
5,CC1=C(/C=C/C(C)=C/C=C/C(C)=C\C(=O)O)C(C)(C)CCC1 [Isotretinoin],0.785
6,C[N+]1(C)[C@@H]2CC[C@H]1C[C@@H](OC(=O)C(O)c1ccccc1)C2 (stereo not given in full) [Homatropine Methylbromide],0.95
7,CN(C)CCOC(c1ccccc1)c1ccccc1 [Diphenhydramine hydrochloride],0.854
8,O=c1oc2ccccc2c(O)c1Cc1c(O)c2ccccc2oc1=O [Dicumarol],0.68
9,O=C(O)CCCc1ccccc1 [Sodium Phenylbutyrate],1.04
10,CCOC(=O)O[C@]1(C(=O)OCCl)CC[C@H]2[C@@H]3CCC4=CC(=O)C=C[C@]4(C)[C@H]3[C@@H](O)C[C@@]21C [Loteprednol etabonate],0.894
